Laboratory results from publication PMC6919601, “Identification of Plasmodium dipeptidyl aminopeptidase allosteric inhibitors by high throughput screening” (PLoS ONE, 2019).
The whole screen tested about 110,000 compounds, of which about 230 (0.21%) showed an effect of 50% or more. This is one part of the list.

Target: DPAP1 (Plasmodium falciparum, UniProt Q8IIJ9)
Assay: primary screen, percent inhibition; read by cleavage of a fluorogenic dipeptide substrate; higher = more effect of the substance
Design: species or system P. falciparum D10 trophozoite lysates; single well
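Note: 30 min substrate incubation versus DMSO and 10 µM JCP410 controls.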

Chain of DPAP1 (Q8IIJ9 whole entry, looked up): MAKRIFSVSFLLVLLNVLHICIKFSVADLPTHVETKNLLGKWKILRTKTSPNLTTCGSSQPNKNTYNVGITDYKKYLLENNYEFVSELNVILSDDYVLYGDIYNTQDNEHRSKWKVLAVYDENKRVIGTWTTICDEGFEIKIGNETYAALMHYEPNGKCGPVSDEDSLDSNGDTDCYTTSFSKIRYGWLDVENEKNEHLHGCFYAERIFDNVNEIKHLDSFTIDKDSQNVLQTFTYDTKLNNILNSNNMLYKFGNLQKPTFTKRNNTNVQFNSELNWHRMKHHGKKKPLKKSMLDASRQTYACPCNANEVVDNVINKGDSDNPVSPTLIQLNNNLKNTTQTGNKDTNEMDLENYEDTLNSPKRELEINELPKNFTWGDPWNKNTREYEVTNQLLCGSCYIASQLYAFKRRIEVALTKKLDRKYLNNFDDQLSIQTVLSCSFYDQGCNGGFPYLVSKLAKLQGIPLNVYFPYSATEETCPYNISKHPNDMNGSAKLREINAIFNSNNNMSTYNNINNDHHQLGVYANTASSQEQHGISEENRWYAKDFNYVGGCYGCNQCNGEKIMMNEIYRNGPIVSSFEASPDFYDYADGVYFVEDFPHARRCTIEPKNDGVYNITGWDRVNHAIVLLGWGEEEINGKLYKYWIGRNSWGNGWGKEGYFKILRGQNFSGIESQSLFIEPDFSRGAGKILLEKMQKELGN

Row | Structure (SMILES) | % Inhibition @ 10 uM
1 | OC1=C2C(=Nc3ccccc3NC2c2ccncc2)CC(c2ccccc2)C1 (centres unmarked) | -4.76%
2 | COc1cc(C2=NOC(C(=O)NCc3ccc(F)cc3)C2)cc(OC)c1OC (centres unmarked) | -2.16%
3 | CCOC(=O)C1=C(CN2CCN(c3ncccn3)CC2)NC(=O)NC1c1ccc(OC(C)C)cc1 (centres unmarked) | -4.69%
4 | CC(C)Oc1ccc(/C=N/N=C/c2ccc(OC(C)C)cc2)cc1 | 1.39%
5 | O=C(c1ccc(Br)o1)N1CCN(C(=O)c2ccc(Br)o2)CC1 | 0.986%
6 | CS(=O)(=O)N(CC(=O)NC1CCCC1)c1cccc(Br)c1 | 0.235%
7 | Cc1ccccc1OCC(=O)Nc1ccc(C(=O)O)cc1 | 4.44%
8 | S=C(NCCSCc1ccc(Cl)cc1)Nc1ccccc1 | -3.44%
9 | N#CC1=C(N)OC2=C(C(=O)CC(c3ccccc3)C2)C1c1cccc(O)c1 (centres unmarked) | 3.03%
10 | O=C(O)c1cc(SCCS(=O)(=O)c2ccc(Cl)cc2)ccc1Cl | -3.66%
11 | COCCNC(=O)c1cnn2c(-c3ccccc3)cc(-c3ccccc3)nc12 | -1.42%
12 | COc1cccc(-c2ccc3c(N)c(C(=O)Nc4ccccc4F)sc3n2)c1 | -0.425%
13 | C/C(=N\Cc1ccncc1)C1=C(O)c2ccccc2C1=O | 4.55%
14 | CC(C)NC(=O)c1ccc(CN2CC(=O)N3CCCCC3C2=O)cc1 (centres unmarked) | -2.77%
15 | COc1ccc(NC(=O)c2cccc(Br)c2)c(OC)c1 | 0.823%
16 | CCC/N=c1\c(NS(=O)(=O)c2ccc3c(c2)CCCC3)c(O)oc2ccccc12 | 4.29%
17 | COc1ccc(C2CC(c3ccc(Br)cc3)=NN2C(=O)CCC(=O)O)cc1 (centres unmarked) | -4.5%
18 | CCN(CC)S(=O)(=O)c1cc(S(=O)(=O)N(CC)CC)c(C)cc1C | 5.56%
19 | COc1ccc(NC(=O)c2cccc(F)c2)cc1OC | -0.636%
20 | COc1ccccc1/C=C/C1NC(=O)NC(C)=C1C(=O)OC(C)C (centres unmarked) | 1.63%
21 | CCOCCCNC(=O)c1ccc2c(c1)c(C)c(C)n2Cc1ccc(Cl)cc1 | 0.224%
22 | COc1ccccc1CCNC(=O)[C@H]1O[C@@H]2OC(C)(C)O[C@@H]2[C@H]2OC(C)(C)O[C@H]21 | 1.64%
23 | O=C(CSc1nnnn1-c1ccccc1)c1ccc2c(c1)Cc1ccccc1-2 | -6.84%
24 | Cc1cc2c(cc1Br)NC(=O)C21C(C#N)=C(N)Oc2cc(N)ccc21 (centres unmarked) | 4.33%
25 | COC(=O)c1coc(=O)c2ccccc12 | -4.74%

Row | Structure (SMILES) | % Inhibition @ 10 uM
26 | Cc1ccc(S(=O)(=O)NCc2ccc(C(=O)O)cc2)cc1 | -5.64%
27 | O=C(c1ccccc1)N1C(O)CCC12CSCC2=O (centres unmarked) | -6.7%
28 | CC1CCCCN1S(=O)(=O)c1ccc(NC(=O)c2ccc(Cl)cc2Cl)cc1 (centres unmarked) | 0.231%
29 | COc1ccc(-n2ncc3c(N(CCO)CCO)ncnc32)cc1 | 2.88%
30 | CCOc1cccc2c1Oc1nc(-c3ccc(C(=O)OC)cc3)nc(O)c1C2 | -1.06%
31 | Cc1cc(-c2ccc(C)c(S(=O)(=O)NCCSCc3ccco3)c2)on1 | -2.86%
32 | O=C(NCc1nc(-c2ccccc2)no1)c1ccc(-c2ccccc2)cc1 | -5.06%
33 | O=c1c(C(c2cncs2)c2c(O)oc3ccccc3c2=O)c(O)oc2ccccc12 | 3.87%
34 | CCOc1ccc(-c2cc(C(=O)N(C)Cc3ccco3)[nH]n2)cc1 | 5.43%
35 | CC(C)(C)c1coc2cc3oc(=O)ccc3cc12 | -4.75%
36 | CC(=O)Nc1cccc(/N=C/c2c(C)nn(-c3ccc(Br)c(C)c3)c2O)c1 | -4.68%
37 | COc1ccc(CN2CCN(CCCc3ccccc3)CC2)c(OC)c1OC | -5.26%
38 | CC(C)n1cc(/C=C2/SC(=O)NC2=O)c2ccccc21 | -4.16%
39 | O=C(O)CCc1nc(O)c2c3c(sc2n1)CCCC3 | -8.12%
40 | COc1cnn(-c2ccccc2)c(=O)c1N(C)C | -1.22%
41 | CC1CN(C(=O)c2ccc(COc3ccccc3Br)cc2)CC(C)O1 (centres unmarked) | -6.94%
42 | Oc1nc(SC(c2ccccc2)c2ccccc2)nc(O)c1C(c1ccccc1)c1ccccc1 | 1.9%
43 | Cc1ccccc1C(=O)N1CCC2(CC1)N=C(c1ccc(F)cc1)C(=O)N2 | -1.46%
44 | CC1CCN(C(=O)Cn2cnc3c(oc4ccccc43)c2=O)CC1 | -5.11%
45 | CCO/C(O)=C1/C(C)=NC2=C(C(=O)CC(c3ccc(OC)cc3)C2)C1c1ccccn1 (centres unmarked) | 22.7%
46 | Clc1ccc(COc2ccccc2CNn2cnnc2)cc1 | 2.8%
47 | CCn1c(NCc2cccs2)nc2ccccc21 | -1.66%
48 | CCc1nnc2sc(-c3ccc(OC)cc3)nn12 | 3.88%
49 | CCN(CC)c1ccc2cc(-c3nc4ccccc4[nH]3)c(=N)oc2c1 | -7.09%
50 | CCOC(=O)c1cnc2ccc(OC)cc2c1NCc1ccccc1 | 2.17%

Row | Structure (SMILES) | % Inhibition @ 10 uM
51 | CCc1ccc(C2=C/C(=C/c3cc(OC)ccc3OC)C(=O)O2)cc1 | -0.169%
52 | CCCCOC(=O)NC1CCS(=O)(=O)C1 (centres unmarked) | -0.85%
53 | CCOc1ccc(CCNC(=O)C2CCC(=O)N2CCc2ccccc2)cc1OCC (centres unmarked) | -1.79%
54 | Cc1ccc(C)c(OCCNC(=O)c2ccc(-c3csc(C)n3)cc2)c1 | 1.84%
55 | COc1ccc(OC)c(CN2CCN(c3cccc(C(F)(F)F)c3)CC2)c1 | 3.16%
56 | CCOC(=O)N1CCC(NC(=O)NCc2noc3ccccc23)CC1 | 3.28%
57 | N#CCNC(=O)[C@H](Cc1cc(I)c(O)c(I)c1)NC(=O)c1ccc(I)cc1 | -4.72%
58 | O=C(Nc1cccc(C(F)(F)F)c1)c1cccnc1N1CCOCC1 | 5.03%
59 | CCC[C@H](NC(=O)[C@H](CS(=O)(=O)NCC(C)C)NC(=O)OCc1ccccc1)C(=O)c1nc2ccccc2o1 | -1.83%
60 | CCOC(=O)C(O)C1CCc2c([nH]c3ccc(C4CCCCC4)cc23)C1=O (centres unmarked) | -0.693%
61 | Cc1ccc(S(=O)(=O)N2CCC(C(=O)Nc3nc4c(s3)CC(c3ccccc3)CC4)CC2)cc1 (centres unmarked) | 0.635%
62 | CCN1C(=O)S/C(=C/c2cc(Cl)cc(OC)c2O)C1=O | -11.7%
63 | COc1cc(C(=O)n2nc(-c3ccco3)nc2NCc2ccccc2Cl)cc(OC)c1OC | -4.75%
64 | COc1ccc(C(=O)N/C(=C\c2ccc3c(c2)OCO3)C(=O)O)cc1 | -1.35%
65 | COc1ccc(CCNc2oc(COc3cccc(C)c3)nc2C#N)cc1 | -1.98%
66 | COc1ccc2cc(-c3nnc(NCc4ccccc4)s3)c(=O)oc2c1 | -2.92%
67 | O=C(CN1CC2CC(C1)c1cccc(=O)n1C2)c1ccc2cc[nH]c2c1 (centres unmarked) | -6.92%
68 | O=Cc1cn(CCCOc2ccccc2Cl)c2ccccc12 | -4.35%
69 | O=C(Cc1ccccc1)N1CCN(c2ccc(F)cc2)CC1 | -17.2%
70 | O=C(Nc1cc([N+](=O)[O-])ccc1Cl)c1cccnc1 | -0.833%
71 | O=C(NCc1ccccc1)c1ccccc1C(=O)Nc1cccc2ccccc12 | 1.7%
72 | Clc1ccccc1OCCN1CCCCC1 | 2.94%
73 | CCOC(=O)C1=C(CN2CCN(C(=O)c3ccco3)CC2)NC(=O)NC1c1ccc(Cl)cc1 (centres unmarked) | -2.83%
74 | Cc1cc(Oc2nc3c(C)cccn3c(=O)c2/C=C(\C#N)C(=O)N2CCOCC2)ccc1Cl | -1.43%
75 | Cc1cccc(N2CCN(C(=O)/C=C/c3ccc4c(c3)OCO4)CC2)c1C | 1.4%

Row | Structure (SMILES) | % Inhibition @ 10 uM
76 | COC(=O)N1c2ccccc2C=Cc2ccccc21 | -2.18%
77 | C=Cc1ccc(Cn2c(C(=O)O)c(CNCCCSC3CCCCC3)c3ccccc32)cc1 | -1.44%
78 | Cc1ccc(S(=O)(=O)Nc2nc3ccccc3nc2Nc2cccc(C(=O)O)c2)cc1 | 3.01%
79 | Cc1nc2ccccc2n1CCc1nc2c3ccccc3nc(NCCc3ccccc3)n2n1 | 4.16%
80 | CCCCC(=O)Nc1ccc(N(CC)CC)cc1C | -2.67%
81 | CCCc1cc(O)n2nc(Cc3ccccc3)c(-c3ccccc3)c2n1 | -3.44%
82 | Cn1c(=O)c2c(nc(NCCOc3ccc(C(C)(C)C)cc3)n2C)n(C)c1=O | 0.484%
83 | O=C1NC(c2cccs2)c2c(-c3cccs3)n[nH]c21 (centres unmarked) | -9.18%
84 | Cc1nn(-c2ccccc2)c(-n2cccc2)c1C(=O)N1CCOCC1 | -3.35%
85 | CC(C)N(Cc1ccccc1)C(=O)CNC(=S)N(CCCN1CCOCC1)Cc1cccs1 | -0.406%
86 | NS(=O)(=O)c1ccc2c(c1)C1C=CCC1C(c1ccc(Cl)cc1Cl)N2 (centres unmarked) | 2.05%
87 | Cc1nn(-c2ccccc2)c(O)c1/C=N/OCc1ccccc1 | -2.14%
88 | COC(=O)CNc1nc(Cl)nc(Nc2ccc(Cl)cc2)n1 | -2.55%
89 | COc1ccccc1C1N(O)C(C)(C)C(c2ccccc2)=[N+]1[O-] (centres unmarked) | 5.23%
90 | O=C1CSC2(C(=O)Nc3ccccc32)N1c1ccc(Br)cc1 (centres unmarked) | 2.76%
91 | CSc1ccc(CCNC(=O)CN(C)c2nnc(N3CCCC3=O)s2)cc1 | -6.12%
92 | COc1ccc(C(=O)Nc2ccc(-c3nc4ncccc4o3)cc2)cc1Br | -5.49%
93 | CCOC(=O)c1c(C)[nH]c(C)c1S(=O)(=O)N(CC(C)C)CC(C)C | -6.53%
94 | Cc1ccc(C)c(S(=O)(=O)NCC(=O)N2CCN(c3ccccc3)CC2)c1 | -2.92%
95 | Cn1c(SCC(=O)NC2CCCC2)nc2c(c1=O)SCC2 | 0.205%
96 | C=CCNc1oc(COc2ccccc2OC)nc1C#N | -2.75%
97 | N#Cc1c(N)c(C(=O)c2ccc(Br)cc2)n2c1CCC2 | -4.21%
98 | Cc1ccc2nc3c(cc(C#N)c(=N)n3CC3CCCO3)c(=O)n2c1 (centres unmarked) | -1.47%
